Source: EPA's CvTdb concentration-time database
This continues a long series; more values of the same kind are listed elsewhere.

Legend:
Rat [1] = test: concentration in plasma after dosing; details: dosed: 2-Methyltetrahydrofuran
Rat [2] = test: concentration in plasma after dosing; details: 0.75 h; dosed: 2-Methyltetrahydrofuran; 30 mg/kg; oral; Female; F344
Rat [3] = test: concentration in brain after dosing; details: 10 min; dosed: 2-Methyltetrahydrofuran; 10 mg/kg; oral; Male; F344
Rat [4] = test: concentration in plasma after dosing; details: 0.5 h; dosed: 2-Methyltetrahydrofuran; 30 mg/kg; oral; Male; F344
Rat [5] = test: concentration in brain after dosing; details: 1.5 h; dosed: 2-Methyltetrahydrofuran; 10 mg/kg; iv; Female; F344
Rat [6] = test: concentration in brain after dosing; details: 10 min; dosed: 2-Methyltetrahydrofuran; 400 mg/kg; oral; Female; Harlan Sprague Dawley
Rat [7] = test: concentration in plasma after dosing; details: 1.5 h; dosed: 2-Methyltetrahydrofuran; 100 mg/kg; oral; Male; Harlan Sprague Dawley

CC1CCCO1 (stereo not drawn) [2-Methyltetrahydrofuran]
concentration in plasma [ng/mL], Rat [1]
Details | Female | Male
0.75 h, 10 mg/kg, oral, F344 | – | 2090
0.75 h, 30 mg/kg, oral, F344 | 15100 | 17100
0.75 h, 100 mg/kg, oral, F344 | 40300 | –
0.75 h, 100 mg/kg, oral, Harlan Sprague Dawley | 39800 | 38500
0.75 h, 400 mg/kg, oral, F344 | 177000 | 197000
0.75 h, 400 mg/kg, oral, Harlan Sprague Dawley | 199000 | –
1 h, 10 mg/kg, iv, F344 | 1700 | 1950
1 h, 10 mg/kg, oral, F344 | 799 | 941
1 h, 30 mg/kg, oral, F344 | 13100 | 15000
1.5 h, 10 mg/kg, iv, F344 | 286 | 932
1.5 h, 10 mg/kg, oral, F344 | 388 | 565
1.5 h, 30 mg/kg, oral, F344 | 8650 | 11500
1.5 h, 100 mg/kg, oral, Harlan Sprague Dawley | 42500 | 38300
1.5 h, 400 mg/kg, oral, F344 | 202000 | 156000
1.5 h, 400 mg/kg, oral, Harlan Sprague Dawley | 158000 | –
2 h, 10 mg/kg, iv, F344 | 191 | 282
2 h, 10 mg/kg, oral, F344 | 11600 | 106
2 h, 30 mg/kg, oral, F344 | 4880 | 4580
2.5 h, 10 mg/kg, oral, F344 | 37.9 | 55.8
3 h, 10 mg/kg, iv, F344 | 57.1 | 46
3 h, 30 mg/kg, oral, F344 | 548 | 576
4 h, 100 mg/kg, oral, Harlan Sprague Dawley | 19600 | 8750
4 h, 400 mg/kg, oral, F344 | 147000 | 139000
4 h, 400 mg/kg, oral, Harlan Sprague Dawley | 165000 | –
6 h, 100 mg/kg, oral, Harlan Sprague Dawley | 7490 | 548
6 h, 400 mg/kg, oral, F344 | 66500 | 92900
6 h, 400 mg/kg, oral, Harlan Sprague Dawley | 83300 | –
8 h, 100 mg/kg, oral, F344 | – | 21.7
8 h, 100 mg/kg, oral, Harlan Sprague Dawley | 447 | 48.8
8 h, 400 mg/kg, oral, F344 | – | 52200
8 h, 400 mg/kg, oral, Harlan Sprague Dawley | 57700 | –
12 h, 100 mg/kg, oral, Harlan Sprague Dawley | 5.8 | –
12 h, 400 mg/kg, oral, F344 | 8610 | 1300
12 h, 400 mg/kg, oral, Harlan Sprague Dawley | 13300 | –

Details | concentration in brain [µg/g] | concentration in plasma [ng/mL]
Rat [2] | – | 5530
Rat [3] | 3.09 | –
Rat [4] | – | 20600
Rat [5] | 0.264 | –
Rat [6] | 238 | –
Rat [7] | – | 45500
